Test results published in article PMC2991514 (Biochemical pharmacology, 2010).
Like-named read-outs stand apart in the source and are kept apart here.

Columns and labels:
[1] = target: T1, human D3 receptor S192A mutant (Homo sapiens, UniProt P35462, S192A)
WT human D3 receptor = WT human D3 receptor (Homo sapiens, UniProt P35462); experiment: biochemical
[2] = target: T1, human D3 receptor S192A mutant; experiment: biochemical

T1 sequence (P35462 whole entry): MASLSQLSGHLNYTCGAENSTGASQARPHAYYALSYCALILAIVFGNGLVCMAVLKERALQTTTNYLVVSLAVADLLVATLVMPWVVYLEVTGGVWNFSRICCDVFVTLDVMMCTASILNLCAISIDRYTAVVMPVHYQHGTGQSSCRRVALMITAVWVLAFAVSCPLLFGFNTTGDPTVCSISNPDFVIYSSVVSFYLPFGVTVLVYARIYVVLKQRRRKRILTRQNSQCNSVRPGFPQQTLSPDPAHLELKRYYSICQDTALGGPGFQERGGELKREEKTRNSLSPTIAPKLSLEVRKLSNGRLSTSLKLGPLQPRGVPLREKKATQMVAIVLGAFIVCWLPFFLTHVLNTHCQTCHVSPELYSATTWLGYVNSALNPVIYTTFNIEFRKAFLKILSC

With `CCCN(CCC)C1CCc2c(O)cccc2C1` (stereo not drawn) [5-OH-DPAT (D323), 5-OH-DPAT, reference compound] the “Loss of binding activity (increase of Ki) at S192A compared with WT” value ([1]; S192A versus WT hD3) was 18 fold.
In the case of `CCCN(CCN1CCN(c2ccc(-c3ccccc3)cc2)CC1)[C@H]1CCc2nc(N)sc2C1` [D264, (S)-N 6-(2-(4-([1,1′-biphenyl]-4-yl)piperazin-1-yl)ethyl)-N 6-propyl-4,5,6,7-tetrahydrobenzo[d]thiazole-2,6-diamine], the “Loss of binding activity (increase of Ki) at S192A compared with WT” value [1] is reported as 2 fold, the Ki (WT human D3 receptor) is reported as 5.81 ± 1.22 nM and the Ki [2] is reported as 15.5 ± 2 nM.
`CCCN(CCN1CCN(c2ccccc2)CC1)[C@@H]1CCc2ccc(O)cc2C1` [D315, (R )-7-((2-(4-phenylpiperazin-1-yl)ethyl)(propyl)amino)-5,6,7,8-tetrahydronaphthalen-2-ol] gave a Ki (WT human D3 receptor) of 0.503 ± 0.082 nM and a Ki [2] of 3.16 ± 0.55 nM.
